Data reported in PMC6919601, “Identification of Plasmodium dipeptidyl aminopeptidase allosteric inhibitors by high throughput screening” (PLoS ONE, 2019).
Several values for one entry are separate records, joined by “and”; a condition that tells them apart may be missing. Identical values can stand only once. Hit rate of the full screen: of about 110,000 compounds, about 230 (0.21%) showed an effect of 50% or more. The list shows a part of the results.

biological target: DPAP1 (Plasmodium falciparum, UniProt Q8IIJ9); experiment: primary screen, percent inhibition; read by cleavage of a fluorogenic dipeptide substrate; higher = more effect of the substance; parameters: species or system P. falciparum D10 trophozoite lysates; single well
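Note: 30 min substrate incubation versus DMSO and 10 µM JCP410 controls.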

Chain of DPAP1 (Q8IIJ9 whole entry, looked up): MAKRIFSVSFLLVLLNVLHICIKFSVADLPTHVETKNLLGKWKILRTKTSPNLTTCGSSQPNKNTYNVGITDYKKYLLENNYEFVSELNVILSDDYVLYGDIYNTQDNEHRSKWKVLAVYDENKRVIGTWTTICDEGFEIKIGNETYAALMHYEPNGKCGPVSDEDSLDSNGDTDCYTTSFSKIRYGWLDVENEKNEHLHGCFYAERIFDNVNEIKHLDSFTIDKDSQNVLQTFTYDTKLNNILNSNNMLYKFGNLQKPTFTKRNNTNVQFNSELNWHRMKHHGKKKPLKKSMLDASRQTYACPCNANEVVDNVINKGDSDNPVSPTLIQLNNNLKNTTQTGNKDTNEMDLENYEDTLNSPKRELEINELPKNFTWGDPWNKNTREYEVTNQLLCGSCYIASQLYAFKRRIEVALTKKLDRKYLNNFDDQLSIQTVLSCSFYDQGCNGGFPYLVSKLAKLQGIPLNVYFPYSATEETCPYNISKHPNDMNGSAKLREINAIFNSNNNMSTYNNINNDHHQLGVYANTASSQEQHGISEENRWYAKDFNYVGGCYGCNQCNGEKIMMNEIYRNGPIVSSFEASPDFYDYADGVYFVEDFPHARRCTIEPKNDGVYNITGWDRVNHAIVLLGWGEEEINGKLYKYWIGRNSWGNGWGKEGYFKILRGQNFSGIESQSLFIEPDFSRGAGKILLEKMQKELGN

Compared with COc1ccc(S(=O)(=O)N(CC(=O)N2CCCCCC2)c2ccc(C)cc2)cc1, CCOC(=O)N1CCN(C(=O)CN(Cc2ccccc2)S(C)(=O)=O)CC1 is higher in “% Inhibition @ 10 uM” value: -10% for the first, -4.52% for the second.

First: Cc1ccc(CCC(=O)Nc2ccc(Cl)cc2)o1
Second: NC(=O)c1ccccc1NC(=O)Nc1ccc(Cl)cc1
The “% Inhibition @ 10 uM” value of the first is lower: -5.96% for the first, -2.42% for the second.

Going from COc1ccc(-n2cccc2/C=C2/C(=N)N3C(c4ccccc4)=CSC3=NC2=O)cc1 to Cc1cccc(OCCSc2nc(-c3ccccc3)nc3cc(=O)[nH]n23)c1, the “% Inhibition @ 10 uM” value rises from -1.54% to 1.28%.

Going from N#CC1=C(SCc2ccccc2)NC(=O)CC1c1ccccc1Cl (stereo not shown) to S=C1NCN(Cc2ccccc2)CN1Cc1ccccc1, the “% Inhibition @ 10 uM” value rises from -4.08% to 1.52%.

Cn1cc2c(c1-c1ccccc1Br)c(=O)n(C)c(=O)n2C and CC(c1ccccc1)n1cc2c(c1-c1ccc(Br)cc1)c(=O)n(C)c(=O)n2C (stereo not shown) are the same in “% Inhibition @ 10 uM” value: 2.41% for the first, 2.41% for the second.

Compared with Cc1ccc(-c2onc(C)c2C)cc1S(=O)(=O)NCc1ccc(Cl)cc1, Cc1c(CNCCc2ccc(Cl)cc2)c(C(=O)O)c(C)n1Cc1ccccc1 is higher in “% Inhibition @ 10 uM” value: -8.27% for the first, 1.41% for the second.

Compared with CS(=O)(=O)c1ccc2nc(NC(=O)C3C4C=CC(C4)C3C(=O)O)sc2c1 (stereo not shown), Cc1nc(NC(=O)c2ccc(C(C)C)cc2)sc1C(=O)N(C)C is higher in “% Inhibition @ 10 uM” value: -0.996% for the first, 0.389% for the second.

First: CC(C)CCNc1nc2c(-c3ccc(Cl)cc3)nnn2c2ccccc12
Second: Cn1c(=O)c2c(-c3ccc(Cl)cc3)n(-c3ccccc3Cl)cc2n(C)c1=O
The “% Inhibition @ 10 uM” value of the first is lower: -6.52% for the first, 0.366% for the second.

First: CN1CCC(Nc2ccc3c[nH]nc3c2)CC1
Second: Cc1ccc(-c2cc(C(=O)N3CCC(C(N)=O)CC3)no2)cc1
The “% Inhibition @ 10 uM” value of the first is lower: -0.0953% for the first, 1.91% for the second.

First: O=C1CC(Nc2ccc(F)cc2)C(=O)N1c1ccc(Br)cc1 (stereo not shown)
Second: O=C(Nc1ccc(N2CCOCC2)cc1)c1cccc(Br)c1
The “% Inhibition @ 10 uM” value of the first is higher: -5.31% for the first, -7.97% for the second.

First: CCOc1ccc(-c2[nH]nc3c2C(c2ccncc2)C(C#N)=C(N)O3)c(OCC)c1 (stereo not shown)
Second: CCCc1[nH]nc2c1C(c1ccc3ccccc3c1)C(C#N)=C(N)O2 (stereo not shown)
The “% Inhibition @ 10 uM” value of the first is higher: -4.43% for the first, -6.62% for the second.

Compared with Cc1nc2c3cccnc3nn2c(C)c1CCC(=O)NC1CCCCCC1, CC(C)(C)NC(=O)Cn1cc(C(=O)C2CCCCC2)c2ccccc21 is higher in “% Inhibition @ 10 uM” value: -3.45% for the first, 2.1% for the second.

First: Brc1ccc(OCCCCCn2ccnc2)cc1
Second: CCCOc1ccc(C2CC(=O)Nc3cc(C)c(C)cc32)cc1 (stereo not shown)
The “% Inhibition @ 10 uM” value of the first is higher: -2.54% for the first, -20% for the second.

Compared with Nc1ccnc(C(F)(F)F)c1C(=O)c1ccccc1, CCOC(=O)c1cnc(SCc2cccc(C(F)(F)F)c2)nc1N is higher in “% Inhibition @ 10 uM” value: -5.47% for the first, 3.69% for the second.

Going from CCCCc1ccc(NC(=O)C23CCC(C)(C(=O)C2=O)C3(C)C)cc1 (stereo not shown) to CCCC(=O)c1c(Nc2ccc(OC)cc2)cc(C)oc1=O, the “% Inhibition @ 10 uM” value falls from -2.53% to -2.56%.

Going from CCOC(=O)c1c(-c2ccc(Cl)cc2)nn2c1NCN(CCOC)C2 to COCCn1c(C)cc(C(=O)C(=O)Nc2nnc(Cc3ccccc3F)s2)c1C, the “% Inhibition @ 10 uM” value rises from -1.08% to -1.06%.

Going from Nc1cccc(C(=O)Nc2ccc(N)cc2Cl)c1 to O=C(Cc1c(F)cccc1Cl)NCC1COc2ccccc2O1 (stereo not shown), the “% Inhibition @ 10 uM” value rises from -2.91% to 1.2%.

First: O=C(CSc1nnc(CSc2nc3ccccc3s2)n1-c1ccccc1)NCc1ccco1
Second: CN(C)CCNc1cc(-c2ccccc2)nc2ccccc12
The “% Inhibition @ 10 uM” value of the first is lower: -4.97% for the first, -3.44% for the second.

Going from NS(=O)(=O)c1ccc(O)c2ccccc12 to Nn1c2ccccc2c2ccccc21, the “% Inhibition @ 10 uM” value falls from -4.26% to -4.74%.

Compared with Cc1oc2ccc(O)c(CN3CCOCC3)c2c1C(C)O (stereo not shown), CCOc1cccc(-c2cc(C(=O)NCCCN3CCOCC3)c3ccccc3n2)c1 is lower in “% Inhibition @ 10 uM” value: 2.86% for the first, -8.36% for the second.

Compared with COc1ccc(C2C3=C(O)CC(C)(C)CC3=Nc3nc(SC)nc(N)c32)cc1OC (stereo not shown), CCOC(=O)c1oc2ccc(S(=O)(=O)n3nc(-c4ccc(OC)cc4OC)cc3N)cc2c1C is higher in “% Inhibition @ 10 uM” value: -2.56% for the first, 5.77% for the second.

Going from COc1ccccc1NC(=O)CCC1CCCC1 to O=C(CN1N=C(c2ccccc2)CCC1=O)NCC1CCCO1 (stereo not shown), the “% Inhibition @ 10 uM” value falls from -0.872% to -2.99%.

Compared with COc1ccc(C2CC(O)=C/C(=N/Cc3ccccc3)C2)cc1 (stereo not shown), Cc1ccc(C2C(=O)N(C3CCC(C)CC3)CC(=O)N2CCc2ccccc2)cc1 (stereo not shown) is higher in “% Inhibition @ 10 uM” value: -4.98% for the first, 5.99% for the second.

Compared with CC1CCN(C(=O)c2ccc(C(=O)N3CCC(C)CC3)cc2)CC1, CCC(N1C(=O)NC(NC(=O)c2ccc(OC)cc2)(C(F)(F)F)C1=O)C12CC3CC(CC(C3)C1)C2 (stereo not shown) is lower in “% Inhibition @ 10 uM” value: -2.87% for the first, -4.35% for the second.

Going from Cc1cccc(-c2nc(-c3ccc(-c4ccccc4)cc3)c(-c3ccccc3)[nH]2)c1 to O=S(=O)(NCc1ccc2c(c1)OCO2)c1ccc(-c2ccccc2)cc1, the “% Inhibition @ 10 uM” value rises from -6.06% to 1.28%.

Compared with Cc1ccccc1S(=O)(=O)Cc1ccc(C(=O)NCCC2=CCCCC2)o1, Cc1nn(CCCC(=O)NC2CCCc3ccccc32)c(=O)c2cc3sccc3n12 (stereo not shown) is lower in “% Inhibition @ 10 uM” value: 0.458% for the first, 0.137% for the second.

Going from O=C1c2ccccc2-c2onc3c(N4CCCC4)cc(N4CCCC4)c1c23 to O=c1c(NCC2CCCO2)c(-c2ccccc2)c1=O (stereo not shown), the “% Inhibition @ 10 uM” value rises from -2.8% to 2.78%.

Compared with COCCNC(=O)c1ccc(CSc2nc3ccncc3n2Cc2ccc(F)cc2)cc1, O=C1N/C(=C\c2ccc(Br)s2)C(=O)N1Cc1ccc(Cl)cc1 is lower in “% Inhibition @ 10 uM” value: -0.637% for the first, -6.86% for the second.

Going from Cn1c(=O)c2c(-c3cccnc3)c(C#N)c(N)nc2n(C)c1=O to Cc1ccccc1C(=O)NC1(C(F)(F)F)C(=O)Nc2c1c(=O)n(C)c(=O)n2C (stereo not shown), the “% Inhibition @ 10 uM” value rises from -0.0372% to 0.032%.

Compared with CCOc1cc(/C=C2/NC(=O)N(CC(=O)Nc3cccc(C)c3)C2=O)ccc1O, CC1=CC2=NC(=O)/C(=C\c3cc(C)n(-c4ccccc4)c3C)C(=N)N2O1 is lower in “% Inhibition @ 10 uM” value: 2.86% for the first, 2% for the second.

First: O=S(=O)(NCCSCc1ccco1)c1ccc(-c2cc(C(F)(F)F)no2)s1
Second: O=Cc1cccn1-c1c(C(=O)O)cnn1-c1ccccc1
The “% Inhibition @ 10 uM” value of the first is lower: -3.05% for the first, 1.42% for the second.

In the case of O=C(NC1CCCC1)C1CCCN(S(=O)(=O)N2CCOCC2)C1 (stereo not shown), the “% Inhibition @ 10 uM” value is reported as 0.616%.

Cc1cc(C(=O)O)c(NC(=O)c2ccccc2Cl)s1 was tested, and the “% Inhibition @ 10 uM” value was -4.48% and 1.19%.
